{"source": "the supplement of paper PMC12632987", "binders": {"B1": {"name": "GBRAP_11_2724 (protein)", "chain": "KKEKLLKLAKKAEELAKKLEKLIKEGPTEEELKELLKEAEELAKEAKEAGVDESIVETLKEAAELIKKAIKDPENKIEYLNEALAALKVAAGDLLLEAEE"}, "B2": {"name": "GBRAP_160_4293 (protein)", "chain": "SEELEEHKKLVDETFKETLELMKGQTAEERAVIVDVELGALILELSEDPSVSDEALDEVDAIRDELVEYILANPNLTDEELEALLEEARKRILEILEKDA"}, "B3": {"name": "GBRAP_35_5611 (protein)", "chain": "DTDDLIADMLVATIEDLTLAVPDLDVDTLVAAVDGLVKSVREVAEELKDNLEALERLLEAMERLLEAMKAHHGDDPRAQEAIAKVEETIKYLKELIKKAK"}, "B4": {"name": "GBRAP_52_5919 (protein)", "chain": "SSEEAKKLAEEILEAALAGDKEKLEKLIKKLVEEKSLEEIKEVIKELARITAELGPEHYDLFAEIMDLLEDAAEEAGRDVEEVQYAIAEAAGLLYEAEQA"}, "B5": {"name": "GBRAP_9_7117 (protein)", "chain": "REEFIEKAAEVVKEAIEDIALVVPSVSEELKEKFKKRVEELKEEALKDKSLTKEEIAEKFKELLKEIKEEVKKIVNEEEQKMVDAIIYTAEEEIDELVEE"}, "B6": {"name": "GBRAP_14_3808 (protein)", "chain": "KEELKKAIREILEDLRRELVEDLGLDPERVTALVDEAIKRIEEAIETLENPEEKIEEIMEELRERIEALAAELGEDVAAGARALVDDAEYEIDEAIEKYS"}, "B7": {"name": "GBRAP_125_3143 (protein)", "chain": "KREELIALAEAVARAFGYSEEEIAELRRLAEASDPAQTIVAIFLAEGFEELAELAEKVLPKLTAEEVRELRDLAVEMLDAPLEEFAAALLAKLRELEAKL"}, "B8": {"name": "GBRAP_172_4999 (protein)", "chain": "GTTLLKLNLLGLSKEEAVETAVKAVKETIEKTGNNLVVAVIADDEETVEAVEKAIKKVAKEKGVKVEVVGEAYRSEEDERRVLAAAEAEKINLEYEEEEK"}, "B9": {"name": "GBRAP_184_5180 (protein)", "chain": "KILEKTLKFENVEELEEKLDEIAEEVKGTKAELYIYVEAEEVTVEMAETLMDKVKEIKEAGYASSITVHVDGDVSEEVADVLVEKAKEAGVKVALELEEE"}, "B10": {"name": "GBRAP_11_2738 (protein)", "chain": "KKEKLKKIAELAEKAAELVEKLIKEGVDNEKLIEETRKALEELKKAVKEYGDKSLQKLAELAIEDFNKGLEDPENAEQYFKEARATLRVLEGQVLLDIEE"}, "B11": {"name": "GBRAP_80_6788 (protein)", "chain": "AKERLEKAIKELEKEDEELAKKLKRIVEIAKEMGVSEETLAELAEAVLELAKEDLELAKEMLEELEKELEELKEEGDSENAEATLRVYAGQMLLEVEELE"}, "B12": {"name": "GBRAP_128_3310 (protein)", "chain": "MNEEILKKAKELAEKIVKASVEEAKKLTKEVIELMGKSSKEEREKITEILEEALKKLSAEKLEAVADTFRENRPKLDPYTANLAADLEVEALNLAEEKEE"}, "B13": {"name": "GBRAP_184_5322 (protein)", "chain": "EVVEVEITVSTEEEARKKLEEVKEEIKKSGKKYLVTIFVENPTEELLKTIADKIKEWKEEGIDAQVIVVTLDPVDEELADFAVKKFDEAGAKIVLALEDE"}, "B14": {"name": "GBRAP_52_6193 (protein)", "chain": "MREELRRKVEEILELVRAGRLEEARRLARELVEELNDEELELLAEVMAEVAARAPLEDEDAVFRTAELLAEAIEEAGKDEALAELLLARTAAALYAKHLA"}, "B15": {"name": "GBRAP_43_5741 (protein)", "chain": "SKELVEGALDFTKLLAEDPSIDEATKVRAFKAAVDLLADEKVQATDALVAAAKALAESLSEAAVQELIAHLDEVAAKNPAVKATFDAARAALRAALAARR"}, "B16": {"name": "GBRAP_52_6011 (protein)", "chain": "MEEEMRERLREALELVRAGREEEARKLVRELVKELNEEEIELLIELLAEMAREAAPEDFDAVWRLAEIVAEEMEEEGKDEVLADLLLARVAAALYEAEQR"}, "B17": {"name": "GBRAP_11_2818 (protein)", "chain": "MSEIVKELIKTLKELAEKAKKYLEEDVGNEELLKEIEKLAEKALELAKKLNDPAVIRDAQAILDTVKEAKADPANRAQYIANAKAGAETLLANIEEEAEE"}, "B18": {"name": "GBRAP_52_5921 (protein)", "chain": "SDEEARALAEAILEAALAGREDELRALIKRLVEEKSLEEIKRVIEELARLTAELGPEHYDLFADIMDLLLDAAEEAGRDVEEVDYAIAEAAGLLYDAEQA"}, "B19": {"name": "GBRAP_160_4581 (protein)", "chain": "SEKLERAKKLIDEARDFVKSQVDEVTLEEFKNIFETEFGAVILELLDEGLITEELADKLMEVVDAAVAYLDANPDLTPEERKALVDKATEEMKKILEEDY"}, "B20": {"name": "GBRAP_160_4779 (protein)", "chain": "SEKVKKLIESIEEAKKEILESIDTESPEETITVARGEMGLILAEVYELEIDNDELEDAVKEIGDELIEELKKNANASKEEKKKIIEEYTKKLIEKIKELS"}, "B21": {"name": "GBRAP_160_4763 (protein)", "chain": "SEELKKLKEEIDEIFDEYIELLKEVPKEEAVTIVEGAMGDVLMEVFSSEAASDELEDKIGEIADEAIARAKANKDAPVEEHIKILEDARDKILALLDEEI"}, "B22": {"name": "GBRAP_159_3963 (protein)", "chain": "MEERLAALREELRALGATEEQIAAALETVELSEEGEDPWSIAAHMVHLYTVLKATTEQLLLVLSYLPPEAAKESAEVLADLAERDGDAAAAAAFRAFAAA"}, "B23": {"name": "GBRAP_43_5781 (protein)", "chain": "SKELVDGALDFALLALEEPSIPEETKVKAIEAAFELAADEGYLDKEKLLAVIKAAGESLSAESLKKLKKKLEEIAKKYPEHKEVLEEAAELVEKAIKEKE"}, "B24": {"name": "GBRAP_184_5195 (protein)", "chain": "KVLEEEIKAENLEELKEKMKKLKEKAKKEKADLLVIVNLPEVTKEMIKALMEAMKEIKEEGYSPNILVEIVGKMTEENIDLAIKLADEAGVTLVLALDEE"}, "B25": {"name": "GBRAP_128_3532 (protein)", "chain": "STEEVIEEARKVVEEIKNSNVEEAYEITVEWLERLKTWSLEEVEAAVEVLIENLPLLSAEKLEAVADAIRENIGKLSPEKQRLVAGLEVEALNLAVEQEE"}, "B26": {"name": "GBRAP_52_6098 (protein)", "chain": "SEEELEKYAKELVKAAVAGDVEKATKLLLELVKSKSDEEVLKTLELAAKLMSELPKEELEKATDVMIEALDRVADETGKEELMDIAQARIAAIAYEALQK"}, "B27": {"name": "GBRAP_160_4741 (protein)", "chain": "SEELKKLKKEIEEIFKEGIELLKESEKSEALTIVRGIMGDVIMLALSSEAVSDELEEKIAEIADEAIEEVEKNKDADVEYAIEIVEKAKEEILKLIEEEI"}, "B28": {"name": "GBRAP_39_5689 (protein)", "chain": "EKEEENENVVSYLEGVAAKYLYETGISFEEALKEAKEVLKAYAEKHPELKPLVEKLIELAEEKGEEAKLVLIGVAVLIKEGTPDEEIKEIIEKAIEYFEE"}, "B29": {"name": "GBRAP_184_5167 (protein)", "chain": "MVKEFEIEVNDVAEAKEKIAEIAKEVAGTKAELFLTVKVEKLTVEIAKAIMDGLKAIKDAGYVTSVTVDFTGEIDEETMDVAIELADEAGVRLVLAIDEE"}}, "note": "Whole data set: some 4,500 sequences, median “median log2 fold change of GCK-ALFA target abundance (FLAG IP / Myc IP barcode read proportion)” near 0.078, cut for the lowest 2% near -0.6. The list shows a part of the results."}
{"biological_target": "GABARAP, O95166", "sequence (O95166 whole entry, the tested form may be a part)": "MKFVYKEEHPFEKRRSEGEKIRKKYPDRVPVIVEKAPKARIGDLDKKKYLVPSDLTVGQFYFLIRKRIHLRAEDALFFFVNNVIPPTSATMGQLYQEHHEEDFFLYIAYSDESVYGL", "assay": "median log2 fold change of GCK-ALFA target abundance (FLAG IP / Myc IP barcode read proportion) (log2 ratio); each designed protein is fused to an ALFA-tag nanobody in HEK293 cells to bring the named protein to FLAG-tagged glucokinase (GCK); Myc marks an untargeted standard; higher = target protein stabilised (more abundant)", "conditions": "target protein: 3xFLAG-MCP-GCK-ALFA reporter; HEK293 landing pad (RPLP)", "how_it_was_run": "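Binders fused to an ALFA nanobody were recombined as a library into HEK293 landing-pad cells, which were induced with 2 μg mL^−1 doxycycline and then transfected to express a FLAG-tagged target and a Myc-tagged standard. After 48 h, circular RNA barcodes recovered by anti-FLAG and anti-Myc immunoprecipitation of lysates were reverse transcribed, amplified and sequenced. Each binder's target abundance is the median log2 ratio of FLAG to Myc barcode read proportions, from barcodes present at ≥10^−7 in both replicates, binders carrying ≥3 barcodes per replicate, a 10^−6 pseudocount and pooled replicates.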"}
{"binder": "B1", "median log2 fold change": 0.0653}
{"binder": "B2", "median log2 fold change": -0.53}
{"binder": "B3", "median log2 fold change": 0.133}
{"binder": "B4", "median log2 fold change": 0.0167}
{"binder": "B5", "median log2 fold change": 0.282}
{"binder": "B6", "median log2 fold change": -0.0417}
{"binder": "B7", "median log2 fold change": -0.133}
{"binder": "B8", "median log2 fold change": 0.15}
{"binder": "B9", "median log2 fold change": -0.0144}
{"binder": "B10", "median log2 fold change": 0.144}
{"binder": "B11", "median log2 fold change": -0.124}
{"binder": "B12", "median log2 fold change": 0.201}
{"binder": "B13", "median log2 fold change": -0.413}
{"binder": "B14", "median log2 fold change": 0.0239}
{"binder": "B15", "median log2 fold change": 0.186}
{"binder": "B16", "median log2 fold change": -0.174}
{"binder": "B17", "median log2 fold change": 0.0577}
{"binder": "B18", "median log2 fold change": -0.394}
{"binder": "B19", "median log2 fold change": 0.0559}
{"binder": "B20", "median log2 fold change": -0.00444}
{"binder": "B21", "median log2 fold change": -0.0101}
{"binder": "B22", "median log2 fold change": 0.185}
{"binder": "B23", "median log2 fold change": 0.286}
{"binder": "B24", "median log2 fold change": -0.207}
{"binder": "B25", "median log2 fold change": 0.128}
{"binder": "B26", "median log2 fold change": 0.196}
{"binder": "B27", "median log2 fold change": 0.138}
{"binder": "B28", "median log2 fold change": 0.178}
{"binder": "B29", "median log2 fold change": 0.0394}
